Measurements reported in patent publication US20260206763A1, “AMIDE COMPOUNDS OR SALTS THEREOF, BACTERICIDAL AGENTS FOR AGRICULTURE AND HORTICULTURE CONTAINING SAID COMPOUNDS, AND METHOD OF USING SAME” (NIHON NOHYAKU CO., LTD., priority 2022, published 2026).

Test system: tomato late blight fungus
Format: in vivo, Phytophthora infestans
Details: 200 ppm, foliar application, 5 or 6 days after inoculation

O=C(NCc1ccccn1)C1(c2cc(Cl)cc(Cl)c2)CC1(Cl)Cl (stereo not shown) [I-A-17]
control efficacy (activity level) on tomato late blight: 1 (the control rate is 10 to 19%)
